Results from article PMC4336329 (PLoS ONE, 2015).
Screen size: about 310,000 compounds; about 14,000 (4.5%) showed an effect of 50% or more. The effect is printed as a negative number. The list shows a part of the results.

molecular target: human ether-à-go-go-related gene (hERG) potassium channel (human, UniProt Q12809); assay: primary screen, population patch clamp on CHO cells stably expressing hERG
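Further: peak tail current of the secondary pulse compared with the same well before compound.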

Sequence of human ether-à-go-go-related gene (hERG) potassium channel (Q12809 whole entry, looked up): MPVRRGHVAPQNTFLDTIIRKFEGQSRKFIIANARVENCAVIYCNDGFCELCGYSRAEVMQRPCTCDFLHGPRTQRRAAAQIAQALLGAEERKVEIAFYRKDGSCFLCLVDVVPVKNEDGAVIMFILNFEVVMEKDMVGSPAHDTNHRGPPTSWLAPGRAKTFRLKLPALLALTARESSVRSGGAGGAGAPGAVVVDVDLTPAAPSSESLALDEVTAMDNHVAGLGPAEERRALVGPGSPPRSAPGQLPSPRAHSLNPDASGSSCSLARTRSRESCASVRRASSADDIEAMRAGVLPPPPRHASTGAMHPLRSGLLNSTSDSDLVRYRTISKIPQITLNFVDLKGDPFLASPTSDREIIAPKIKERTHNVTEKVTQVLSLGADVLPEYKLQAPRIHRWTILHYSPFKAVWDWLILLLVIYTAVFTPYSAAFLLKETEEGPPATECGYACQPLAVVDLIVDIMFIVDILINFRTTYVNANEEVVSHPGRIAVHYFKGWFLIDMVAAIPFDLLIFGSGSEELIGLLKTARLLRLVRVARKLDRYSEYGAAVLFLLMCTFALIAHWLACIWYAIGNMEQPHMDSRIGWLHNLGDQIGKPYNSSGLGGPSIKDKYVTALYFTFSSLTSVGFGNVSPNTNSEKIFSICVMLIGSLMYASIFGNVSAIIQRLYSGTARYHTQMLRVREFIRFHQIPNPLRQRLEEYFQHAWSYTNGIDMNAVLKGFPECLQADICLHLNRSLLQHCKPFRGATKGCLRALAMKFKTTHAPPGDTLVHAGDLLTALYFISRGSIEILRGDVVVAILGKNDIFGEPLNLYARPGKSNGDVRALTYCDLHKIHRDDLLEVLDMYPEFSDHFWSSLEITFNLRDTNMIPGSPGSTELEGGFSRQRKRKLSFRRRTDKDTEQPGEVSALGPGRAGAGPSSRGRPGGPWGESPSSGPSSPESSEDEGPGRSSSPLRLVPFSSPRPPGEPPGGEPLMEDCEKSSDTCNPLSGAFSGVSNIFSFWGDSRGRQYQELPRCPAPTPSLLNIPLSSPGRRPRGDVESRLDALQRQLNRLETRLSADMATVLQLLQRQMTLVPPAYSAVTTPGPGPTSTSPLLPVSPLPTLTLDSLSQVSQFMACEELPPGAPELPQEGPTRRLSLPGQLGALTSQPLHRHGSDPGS

Row | SMILES | hERG current change (%, negative = inhibition) at 10uM
1 | O=C1NC(=O)N(c2ccccc2)C(=O)/C1=C/c1coc2ccc(O)cc2c1=O | -6.18%
2 | O=C(NN1CCOCC1)c1cc(-c2cccs2)nc2ccccc12 | -24%
3 | O=C(Nc1nc(-c2cccs2)cs1)c1ccc(S(=O)(=O)N2CCCC2)cc1 | 5.72%
4 | Cc1ccc(C)c(S(=O)(=O)NCc2ccc(C(=O)N3CCN(c4ccccc4)CC3)cc2)c1 | -3.21%
5 | O=C(O)CSCc1nc2scc(-c3ccccc3)c2c(=O)[nH]1 | 19.1%
6 | CCn1c(C)nc2cc(C(=O)NNC(=S)Nc3ccc(OC)cc3)ccc21 | 23.5%
7 | COc1cc2c(cc1OC)CN(C(=O)CCOc1ccccc1)CC2 | -8.53%
8 | Cc1ccc(OC(C)C(=O)Nc2ccc3c(c2)n(C)c(=O)n3C)c(C)c1 (stereo not drawn) | 11.7%
9 | Cc1ccc2c(c1C)NC(C)CC2C.Cl (stereo not drawn) | 1%
10 | Cc1ccc(S(=O)(=O)CCC(=O)N(C)c2c(N)n(Cc3ccccc3)c(=O)[nH]c2=O)cc1 | 14.4%
11 | CCn1c(CNC(=O)COc2c(C)cccc2C)nnc1SCC(=O)Nc1nccs1 | -51.8%
12 | O=C(NC1CCN(C(=O)NCc2ccccc2)CC1)c1ccc(F)cc1 | -15.8%
13 | C1=CCN(Cc2ccccc2)C1 | 0.36%
14 | CC1Cc2ccccc2N1C(=O)CSc1nc(-c2ccco2)cc(C(F)(F)F)n1 (stereo not drawn) | -1.9%
15 | CCN(CC)Cc1oc(-c2ccccc2)cc1C(=O)O | 10.9%
16 | FC(F)(F)c1cccc(NC(=S)NCCc2ccccn2)c1 | -25.5%
17 | Cc1ccccc1C(=O)Nc1ccc(C(=O)N/N=C/c2ccc(F)cc2)cc1 | 18.9%
18 | CCOC(=O)C1CCCN(C(=O)Cn2c(=O)c3cccn3c3cccnc32)C1 (stereo not drawn) | 21.2%
19 | CCNC(=O)c1cccc(S(=O)(=O)N2CCCCCC2)c1 | -2.91%
20 | CC(C)[C@]12O[C@H]1[C@@H]1O[C@]13[C@]1(O[C@H]1C[C@H]1C4=C(CC[C@@]13C)C(=O)OC4)[C@@H]2O | 0.465%
21 | Cn1nc(-c2ccc(Cl)cc2)c2cc(C(=O)NCCCN3CCCC3)sc21 | -59.5%
22 | COc1ccc(CNC(=O)C2CCN(S(=O)(=O)c3cccc4nsnc34)CC2)cc1 | 5.82%
23 | CC(=O)c1cccc(NC(=S)NC(=O)c2ccccc2C)c1 | -4.16%
24 | O=C(O)COc1cccc(NC(=O)c2ccccc2)c1 | -3.14%
25 | COc1ccc(OC)c(S(=O)(=O)N2CCC(C(=O)N(C)Cc3ccccc3)CC2)c1 | -23.5%
26 | COc1cc(CN2CCN(C(c3ccccc3)c3ccccc3)CC2)cc(OC)c1OC.O=C(O)C(=O)O | -17.2%
27 | CCOc1ccccc1N1CCN(C(=O)c2ccc(OCC(=O)N3CCOCC3)c(OC)c2)CC1 | 3.55%

Row | SMILES | hERG current change (%, negative = inhibition) at 10uM
28 | COc1ccc2[nH]c(=O)c(CN(C)C(=O)COc3ccccc3)cc2c1 | 12.1%
29 | CCC(C(=O)Nc1ccccc1Cl)n1nc(C)c2c(C)n(-c3ccccc3)nc2c1=O (stereo not drawn) | -4.53%
30 | COCc1cc(C)n(CC(=O)Nc2ccc3c(c2)OCO3)c(=O)c1C#N | 8.68%
31 | CCN(CC(=O)Nc1c(C(=O)OC)[nH]c2ccc(C)cc12)c1ccc2c(c1)OCO2 | 2.19%
32 | Cc1cc(C(=O)N2CCc3ccccc32)c2ccccc2n1 | 2.66%
33 | O=C(Nc1ncn[nH]1)C(F)(F)C(F)F | -2.1%
34 | O=C(CN1CCOCC1)Nc1ncc(Br)cc1Br | -20.3%
35 | COc1cccc(N(CC(=O)NCc2cccnc2)S(C)(=O)=O)c1 | 8.48%
36 | CCC(=O)Nc1ccccc1Nc1cc(C#N)c(C#N)cc1[N+](=O)[O-] | 1.07%
37 | Oc1ccc(/C=N/Nc2ncc(Cl)cc2Cl)cc1 | 9.58%
38 | CC(C)n1cc(CN2CCC(Oc3ccc(C(=O)N4CCCC4)cc3)CC2)cn1 | -9.96%
39 | COc1ccc(CN(C)C(C)C(=O)Nc2ccc(S(=O)(=O)N3CCCC3)cc2)c(OC)c1OC (stereo not drawn) | 10.3%
40 | CN(C)c1ccc(NC(=O)CN2CCC(O)(c3ccccc3)CC2)cc1 | -26%
41 | Cc1ccc(C)c(OCc2cc(C(=O)N3C[C@@H](C)O[C@@H](C)C3)no2)c1 | 4.95%
42 | COc1ccc(-c2ccc(=O)n(CC(=O)Nc3ccc(C(=O)NC4CC4)cc3)n2)cc1OC | 4.4%
43 | Cc1cc(C(=O)Nc2sc3c(c2C#N)CCCCC3)cs1 | -18.3%
44 | CC(C)(C)OC(=O)NCc1ccc(CNC(=O)c2[nH]cnc2C(=O)NCC(=O)OCc2ccccc2)cc1 | 1.41%
45 | COc1ccc(OC)c(NC(=O)CC2C(=O)NCCN2C(=O)c2ccccc2)c1 (stereo not drawn) | 15.7%
46 | CCOC(=O)c1c(C)[nH]c(C(=O)COC(=O)CCSc2ccccc2)c1C | 29.9%
47 | CCCN(CCC)C1Cc2cc(OC)c(OC)cc2C1.O=C(O)/C=C\C(=O)O | -33.4%
48 | COc1ccc(-n2cnnc2SCC(=O)NC2CCS(=O)(=O)C2)cc1 (stereo not drawn) | 8.52%
49 | Cc1cccc(CC(=O)NCCS(=O)(=O)N2CCN(c3cccc(Cl)c3)CC2)c1 | -20.2%
50 | Cn1cccc1C(C(=O)NC1CCCCC1)N(C(=O)Cc1cccs1)C1CC1 (stereo not drawn) | 8.24%
51 | CCOC(=O)c1csc(NC(=O)c2ccc3c(c2)OCCO3)n1 | 9.85%
52 | CC(=O)c1cccc(Nc2cc(C)nc3c(C)cc(C)cc23)c1.Cl | -56.1%
53 | COc1ccc(C(CC(=O)N2CCN(c3ccccc3)CC2)c2c(OC)cc(OC)c3ccc(=O)oc23)cc1 (stereo not drawn) | 1.88%
54 | O=C(NC1CCCCC1)C(c1ccncc1)N(C(=O)c1ccco1)c1ccc(F)cc1 (stereo not drawn) | -15%
